Data on 25 compounds can be found in PubChem BioAssay (NCI).

For this assay, the system named is NCI-H322M lung. In words: NCI anticancer screen, dose series, 48 h.

SMILES strings stand for the structures. “And” between values parts separate entries of the source, which are not always exact repeats. Equal entries are not always repeated.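 Compound exposure: 48 hours, 5 concentrations, 96-well plates. At the GI50, growth is halved. Definition used: TGI = concentration required for complete inhibition of growth.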 Some results are limits rather than exact numbers.

For the compound `Cc1cc2c(-c3nc4ccccc4[nH]3)c(O)c(O)cc2c(O)c1-c1c(C)cc2c(-c3nc4ccccc4[nH]3)c(O)c(O)cc2c1O`, the GI50 is 0.0711 µM and the TGI is 7.74 µM.
In turn, `CN(C)N=Nc1ccc([N+](=O)[O-])cc1C(N)=O` registered a TGI greater than 100 µM.
For the compound `CCCCNC(=S)Nn1c(-c2ccccc2)nc2ccccc2c1=O`, the TGI is greater than 100 µM.
Turning to `CCOC(=O)c1c(SC(=O)c2cc(OC)c(OC)c(OC)c2)n(-c2ccccc2)c(=S)n(-c2ccccc2)c1=O`, the TGI is greater than 100 µM.
Regarding `c1ccc([CH2][Sn]([CH2]c2ccccc2)([S]c2cccc3cccnc23)[S]c2cccc3cccnc23)cc1`, the GI50 is 0.326 µM and the TGI was 1.14 µM.
`COc1ccc(CN(O)C2C(CO)OC(n3cc(I)c(=O)[nH]c3=O)C2O)cc1` (stereo unspecified) registered a TGI greater than 100 µM.
The same measure, in the same setting: the same measure for `CCN(CC)CCN(C)CC(C)(C)C(=O)/C=C/c1ccccc1`: 26.5 µM.
Same read-out and setting: the same measure for `CC(=O)OCC1OC(n2cc(F)c(=O)[nH]c2=O)C(OC(C)=O)C1OC(C)=O` (stereo unspecified): greater than 100 µM; for `O=C(CC(O)(c1ccccc1)c1ccc(Cl)cc1)NC(=O)c1ccccc1O` (stereo unspecified): greater than 100 µM.
For `CCSc1ncnc2c(C3OC(CO)C(O)C3O)nsc12` (stereo unspecified), the TGI was greater than 100 µM.
For the compound `O=[N+]([O-])c1ccc2c(c1)nc(Cc1ccccc1)n2C[C@@H]1CCCN2CCCCC12` (stereo partly specified), the TGI is 61.9 µM.
In turn, `CC(=O)NC1(C)CCC(C(C)(C)NC(C)=O)CC1` (stereo unspecified) gave a TGI greater than 100 µM.
For `C=C1C(=O)OC(CCCCCCCC)C1C(=O)O` (stereo unspecified), the GI50 is 19.5 µM and the TGI came to 40.3 µM.
On to `COCCNC(=O)C1C(=O)N(CCOC)C(=O)/C1=N/N` (stereo unspecified), for which the TGI was greater than 100 µM.
Still for that read-out and setting: the same measure for `O=C(Nc1nc2ncn(CCOC(=O)c3ccccc3)c2c(=O)[nH]1)c1ccccc1`: greater than 100 µM.
Same read-out and setting: to `O=S(=O)(c1ccccc1)n1c(C(O)c2ccncc2)cc2ccccc21` (stereo unspecified) belongs greater than 100 µM; to `N#CCCNCCN(CCN(C(=O)Nc1ccccc1)c1ccccc1)C(=O)Nc1ccccc1`, greater than 100 µM.
The same measure, in the same setting: the same measure for `C[N+](C)(C)CC(=O)N/N=C(/C=C/c1ccccc1)CC1OC(=O)c2ccccc21` (stereo unspecified): greater than 100 µM.
Take `O=[N+]([O-])C(/C(Cl)=C(/Cl)N1CCOCC1)=C1\NCCO1`: the TGI was greater than 100 µM.
For the compound `O=C(Nc1ccc(Cl)cc1)NS(=O)(=O)c1ccc2c(c1)CCC2`, the GI50 was 19.7 mg/L; the TGI is > 95.6 µM and 40.1 µg/mL.
On to `NNC(=O)CC(=O)Nc1ccc(Cl)cc1`, for which the TGI is greater than 100 µM.
Turning to `CC(C)OC(=O)c1ccc(NCC2=CC(=O)C=CC2=O)cc1Cl`, the TGI was greater than 100 µM.
Take `COc1cc(-c2cc(-c3ccc(N(C)C)cc3)nc(N3CCC(O)CC3)c2C#N)cc(OC)c1OC`: the GI50 is 0.953 µM and the TGI is greater than 100 µM.
In the case of `Cc1cc(Cl)n2c(nc3ccccc32)c1C#N`, the GI50 is 2.33 µM and the TGI was 9.09 µM.
As for `COC1CC(OC2OC(CO)C(O)C(O)C2O)/C(=C\C#N)C(O)C1OC` (stereo unspecified), the TGI is greater than 100 µM.
